The campaign covered roughly 350,000 compounds. About 31,000 (8.9%) were called active. Inconclusive results, whose numbers are uncertain, are shown with a selection of clear calls. The call rests on the fitted dose curve; in most records, active means well fitted inhibition curve with a large enough effect; inconclusive means small, poorly fitted or top-dose-only effect; inactive means no such curve, though single readings can be large or run the other way. Where the call is inconclusive, the potency comes from a doubtful curve fit.
Each compound was assayed against Histone-lysine N-methyltransferase EHMT2 (Homo sapiens) (UniProt Q96KQ7) (assay: qHTS Assay for Inhibitors of Histone Lysine Methyltransferase G9a). Settings: G9a H3K9 monomethylation, AlphaScreen, 2 h; activity, negative = inhibition: at 59 µM (top of the series) unless noted.
Outline: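 AlphaScreen detection with an anti-monomethyl H3K9 antibody quantified product after a 2 h room-temperature reaction containing 500 nM biotinylated H3K9 peptide, 20 µM SAM and 20 nM enzyme, which had been preincubated 15 min with compound.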
Further: nearly all actives have a fitted effect of over 75% in size.
On the % scale 0 is the no-effect control and ±100 the full control effect; potency means the concentration at half of the fitted maximal effect; tags describe the fitted curve by direction and shape.

Chain of UniProt Q96KQ7 (Q96KQ7 whole entry, looked up): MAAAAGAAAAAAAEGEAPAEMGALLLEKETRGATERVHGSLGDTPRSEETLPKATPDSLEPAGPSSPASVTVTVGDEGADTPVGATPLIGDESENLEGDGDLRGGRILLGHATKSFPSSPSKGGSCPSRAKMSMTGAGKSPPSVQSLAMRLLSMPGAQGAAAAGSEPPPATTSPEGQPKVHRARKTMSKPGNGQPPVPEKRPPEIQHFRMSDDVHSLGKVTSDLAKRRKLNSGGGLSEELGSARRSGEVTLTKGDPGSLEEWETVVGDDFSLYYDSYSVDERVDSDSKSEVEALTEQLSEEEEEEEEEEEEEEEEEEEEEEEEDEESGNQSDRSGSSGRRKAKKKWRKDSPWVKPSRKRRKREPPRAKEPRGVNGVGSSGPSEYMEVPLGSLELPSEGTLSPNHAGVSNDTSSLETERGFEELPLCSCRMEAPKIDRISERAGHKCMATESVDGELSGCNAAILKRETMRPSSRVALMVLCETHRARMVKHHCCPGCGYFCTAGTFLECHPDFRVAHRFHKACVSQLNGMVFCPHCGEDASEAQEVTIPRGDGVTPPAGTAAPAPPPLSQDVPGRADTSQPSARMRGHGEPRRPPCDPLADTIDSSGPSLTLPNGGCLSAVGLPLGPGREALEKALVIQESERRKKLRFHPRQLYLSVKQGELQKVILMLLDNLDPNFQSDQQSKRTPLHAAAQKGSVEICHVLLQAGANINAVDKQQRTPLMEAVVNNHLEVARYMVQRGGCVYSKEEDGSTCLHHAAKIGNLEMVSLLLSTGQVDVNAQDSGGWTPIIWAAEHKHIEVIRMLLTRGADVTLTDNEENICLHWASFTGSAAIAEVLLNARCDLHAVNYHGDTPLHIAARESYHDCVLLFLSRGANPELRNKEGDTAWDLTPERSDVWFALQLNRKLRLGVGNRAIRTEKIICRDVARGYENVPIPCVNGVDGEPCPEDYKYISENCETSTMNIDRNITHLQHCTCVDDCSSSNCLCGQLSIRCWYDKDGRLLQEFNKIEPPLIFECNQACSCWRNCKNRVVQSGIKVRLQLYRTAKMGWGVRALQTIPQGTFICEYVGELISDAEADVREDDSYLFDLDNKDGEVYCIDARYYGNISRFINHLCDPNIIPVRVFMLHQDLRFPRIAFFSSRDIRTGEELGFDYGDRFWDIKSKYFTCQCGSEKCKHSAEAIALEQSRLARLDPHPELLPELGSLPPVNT

| Compound | Potency | activity, negative = inhibition |
| --- | --- | --- |
| c1n[nH]c(SCCCCSc2ncn[nH]2)n1 | inconclusive: 89.1 µM [inhibitor, single point] | – |
| Cc1cccc(NC(=O)C(=O)c2cc(C)n(-c3ccccc3)c2C)c1C | inactive | – |
| COc1cccc(N2CCN(C(=S)NCCc3ccccc3)CC2)c1 | inactive | – |
| NS(=O)(=O)c1ccc(NS(=O)(=O)c2ccc(NC(=S)Nc3ccccc3)cc2)cc1 | inconclusive: 89.1 µM [inhibitor, single point] | – |
| CCS(=O)(=O)N1Cc2ccccc2CC1C(=O)Nc1ccc(C)cc1 (stereo not drawn) | inconclusive: 3.16 µM [inhibitor, single point] | – |
| O=c1cc(CO)oc(CN2CCN(c3cccc(C(F)(F)F)c3)CC2)c1O | – | inconclusive: -100% [inhibitor] |
| Cc1ccc(N2C(=O)C3CCCN3C2=S)cc1Cl (stereo not drawn) | inconclusive: 89.1 µM [inhibitor, single point] | – |
| CC(=O)NC12CC3CC(C1)CC(C(=O)NCc1ccc(C)cc1)(C3)C2 | inactive | – |
| Cc1cccc(NS(=O)(=O)c2cccc(C(=O)N3CCCCCC3)c2)c1 | inactive | – |
| CN(c1ccc(C(=O)NCCSCc2ccco2)cc1)S(C)(=O)=O | inactive | – |
| COc1cc2c(cc1NC(=O)CC1SC(N3CCCC3)=NC1=O)oc1ccccc12 (stereo not drawn) | inconclusive: 70.8 µM [inhibitor, single point] | – |
| CC(=O)Nc1ccc(NC(=O)C(C)OC(=O)CCCc2c[nH]c3ccccc23)cc1 (stereo not drawn) | inconclusive: 50.1 µM [inhibitor, partial curve] | – |
| CCc1nc(-c2cc(S(=O)(=O)N3CCN(c4ccc(F)cc4)CC3)ccc2OC)no1 | inconclusive: 39.8 µM [inhibitor, partial curve, poor fit] | – |
| Cc1ccc(CN2CCc3[nH]c(=O)[nH]c(=O)c3C2)cc1 | inactive | – |
| CCOC(=O)c1ccc(Nc2cnc3ccccc3n2)cc1 | – | inactive: 65.4% [at 12.7 µM] |
| CC(=O)c1cc(-c2ccccc2)n(CC(=O)NC2CCCCCC2)c1C | inactive | – |
| O=C(/C=N/O)Nc1ccccc1C(=O)O | inconclusive: 1.26 µM [inhibitor, partial curve] | – |
| Cc1nc2ccc(NC(=O)c3ccc(S(=O)(=O)N(C)C)cc3)cc2s1 | inactive | – |
| CC1=C(C)CC(C(=O)Nc2nccs2)C(C(=O)O)C1 (stereo not drawn) | inactive | – |
| Cc1cccc(C(=O)N2CCN(c3ccc([N+](=O)[O-])c(NCc4ccco4)c3)CC2)c1 | inconclusive: 35.5 µM [inhibitor, partial curve] | – |
| Oc1ccc(Br)cc1Cn1nnc2ccccc21 | inactive | – |
| Cc1ccc(NC(=O)CN2CCN(Cc3ccccc3)CC2)c(Br)c1 | inconclusive: 7.94 µM [inhibitor, full curve, poor fit] | – |
| O=C(Nc1nccs1)c1ccc2nccnc2c1 | inactive | – |
| COCCNC(=O)CSc1ccccc1C(=O)NC1CCCc2ccccc21 (stereo not drawn) | inconclusive: 70.8 µM [inhibitor, partial curve, poor fit] | – |
| CCOn1c(=O)c(C)[n+]([O-])c2ccccc21 | inactive | – |

| Compound | Potency | activity, negative = inhibition |
| --- | --- | --- |
| O=C(NCCC1=CCCCC1)N[C@@H](Cc1ccccc1)C(=O)O | inconclusive: 7.94 µM [inhibitor, partial curve, poor fit] | – |
| COc1ccc(CC2(CO)CCN(C(C)Cc3ccc(Cl)cc3)CC2)cc1 (stereo not drawn) | inconclusive: 39.8 µM [inhibitor, partial curve, poor fit] | – |
| c1ccc(Nc2nc(CSc3ncn[nH]3)cs2)cc1 | active: 22.4 µM | – |
| COc1cccc(N2C(=O)CC(N3CCN(c4ccc([N+](=O)[O-])cc4)CC3)C2=O)c1 (stereo not drawn) | inconclusive: 89.1 µM [inhibitor, single point] | – |
| COc1cccc(C(=O)OCC(=O)Nc2cc(C)c(C)cc2[N+](=O)[O-])c1 | inactive | – |
| COc1cccc(CNC(=O)CCNC(=O)c2ccccc2OC)c1 | inactive | – |
| Cc1ccc(C(=O)Nc2ccc(-n3c(C)nc4ccccc4c3=O)cc2)cc1[N+](=O)[O-] | inactive | – |
| O=C(CN1CCC(NC(=O)Nc2ccc(F)cc2)CC1)Nc1ccccc1[N+](=O)[O-] | inconclusive: 89.1 µM [inhibitor, single point] | – |
| CCCCn1c(=S)[nH]c2cc(S(=O)(=O)N3CCCCC3)ccc21 | active: 1.78 µM | – |
| O=C(COC(=O)c1ccc2c(c1[N+](=O)[O-])C(=O)c1ccccc1C2=O)NC1CC1 | active: 35.5 µM | – |
| C/C(O)=C(\C#N)c1nnc2n1CCCCC2 | active: 10 µM | – |
| COc1ccccc1N1CSC2=C(C#N)C(c3ccc(SC)cc3)CC(=O)N2C1 (stereo not drawn) | active: 2.24 µM | – |
| CCN(CC)CC(=O)c1c[nH]c2ccccc12 | inconclusive: 39.8 µM [inhibitor, single point] | – |
| COc1ccc(CCNC(=O)Cc2c(C)c3cc(OC)c(OC)cc3oc2=O)cc1 | inactive | – |
| COc1ccc(C(C(=O)NC2CCCCC2)N(Cc2cccnc2)C(=O)c2snc(C(N)=O)c2N)cc1 (stereo not drawn) | inactive | – |
| COc1ccccc1OS(=O)(=O)c1ccc(NC(C)=O)cc1 | inactive | – |
| Cc1noc(C)c1COc1ccc(C(=O)NCC(c2c(F)cccc2Cl)N(C)C)cc1 (stereo not drawn) | inactive | – |
| Cc1cc(=O)oc2ccc(OCC(=O)N(Cc3ccc(F)cc3)Cc3ccco3)cc12 | inconclusive: 3.16 µM [inhibitor, partial curve, poor fit] | – |
| CSCC[C@H](NC(=O)[C@H]1CC[C@H](CNC(=O)[C@@H](N)Cc2ccccc2)CC1)C(=O)O | inactive | – |
| CCN(C(=O)c1cc2c(s1)-c1c(C)cccc1OC2)c1cc(C)ccc1C | inactive | – |
| O=C(Nc1nc2n(n1)C(c1ccc(F)cc1)C=C(c1ccc(Cl)cc1)N2)c1ccco1 (stereo not drawn) | inconclusive: 31.6 µM [inhibitor, partial curve, poor fit] | – |
| CCCCNC(=O)c1ccc2c(c1)ncn2C1CCCCC1 | inconclusive: 79.4 µM [inhibitor, single point] | – |
| Cc1ccc(-c2nnn(CC(=O)N(Cc3cccs3)C(C(=O)NC(C)(C)C)c3ccc(C)o3)n2)o1 (stereo not drawn) | inconclusive: 11.2 µM [inhibitor, partial curve] | – |
| CS(=O)(=O)c1ccc2nc(NC(=O)C3CC(=O)N(c4ccc(F)cc4)C3)sc2c1 (stereo not drawn) | inconclusive: 70.8 µM [inhibitor, single point] | – |
| CCOC(=O)c1sc(NC(=O)CN2C(=O)C3CC=CCC3C2=O)nc1C (stereo not drawn) | – | inactive: 6.21% [at 12.7 µM] |

| Compound | Potency | activity, negative = inhibition |
| --- | --- | --- |
| COc1ccc(-n2c(=O)c3ccccc3n(Cc3ccc(F)cc3Cl)c2=O)cc1OC | inactive | – |
| COc1ccc2nc(C)cc(NCc3ccc(F)cc3)c2c1 | inconclusive: 79.4 µM [inhibitor, single point] | – |
| Cc1cc(C)n(C(=O)c2ccc([N+](=O)[O-])cc2[N+](=O)[O-])n1 | inactive | – |
| CN(C)c1ncc2nc(-c3cn(C)c4ccccc34)c(=O)n(C[C@H]3CCCO3)c2n1 | – | inactive: 1.05% [at 0.501 µM] |
| Cc1noc(C)c1CSc1nc2ccccc2n1CCc1ccccc1 | inconclusive: 1.41 µM [inhibitor, partial curve, poor fit] | – |
| Cn1cccc1C(=O)N1CCC[C@@]2(CCN(c3ncccn3)C2)C1 | – | inactive: 0.139% [at 12.7 µM] |
| Cc1cc(S(=O)(=O)Nc2cc3c(cc2N2CCOCC2)n(C)c(=O)n3C)ccc1F | inconclusive: 20 µM [inhibitor, single point] | – |
| COc1ccc(/C=C/C(=O)NC(=S)Nc2cc3oc4ccccc4c3cc2OC)cc1 | inconclusive: 15.8 µM [inhibitor, single point] | – |
| CCOc1ccc(S(=O)(=O)N2CCC(C(=O)NCc3ccncc3)CC2)cc1Cl | inactive | – |
| Cc1ccc(N(NC(=O)C(O)(c2ccccc2)c2ccccc2)C(=O)CCl)cc1 | inconclusive: 50.1 µM [inhibitor, partial curve, poor fit] | – |
| CCc1ccccc1-n1nnnc1SCC(=O)Nc1cc(C)on1 | inconclusive: 56.2 µM [inhibitor, partial curve, poor fit] | – |
| COc1ccc(C2CC(=O)c3cc(-c4nc(-c5ccc(Cl)cc5)cs4)c(=O)[nH]c3C2)cc1 (stereo not drawn) | inconclusive: 31.6 µM [inhibitor, single point] | – |
| COCCn1cnc2c1c(=O)n(CC(=O)OCC(=O)NCCCc1ccccc1)c(=O)n2Cc1ccccc1 | inconclusive: 25.1 µM [inhibitor, partial curve, poor fit] | – |
| CCOc1ccc(CNC(=O)C2CCN(C3=NS(=O)(=O)C(c4ccc(C)cc4)=C3CC)CC2)cc1 | inactive | – |
| CC(=O)N1CCc2cc(S(=O)(=O)CCC(=O)Nc3ccccc3F)ccc21 | inconclusive: 89.1 µM [inhibitor, single point] | – |
| CCN(CC)c1ccc2c(C)c(Cl)c(=O)oc2c1 | active: 12.6 µM | – |
| CCc1ccccc1N1CC(c2nnc(NC(=O)c3ccco3)s2)CC1=O (stereo not drawn) | inactive | – |
| CC(O)c1nc2ccccc2n1CC(=O)N1CCN(c2ccccc2)CC1 (stereo not drawn) | inconclusive: 56.2 µM [inhibitor, partial curve] | – |
| NC(=NCCc1c[nH]c2ccccc12)NC(=O)c1ccc(Cl)cc1 | inconclusive: 50.1 µM [inhibitor, partial curve] | – |
| Nc1nnc(SCC(=O)NNC(=O)c2ccc(F)cc2)s1 | inconclusive: 8.91 µM [inhibitor, single point] | – |
| O=C(NC(NNc1ccc([N+](=O)[O-])cc1)(C(F)(F)F)C(F)(F)F)c1ccccc1Cl | – | inconclusive: -88.1% [inhibitor] |
| CCCc1cc(=O)[nH]c(SCC(=O)NC)n1 | inactive | – |
| Cc1c(Cl)cccc1NC(=O)CNC(=O)CCCc1nc2ccccc2c(=O)[nH]1 | active: 44.7 µM | – |

— PubChem BioAssay AID504332 (National Center for Advancing Translational Sciences (NCATS), 2011)
